In the RNAGym collection of RNA variant scans (doi:10.7554/elife.90254):
The source gives no read counts; variants with many changes may rest on few reads.

B1: LINE1-full (parent)
chain: UACGUAGGUGGUUUUCCCCUGAUAGUGCUAAGGGGGCCUGGAAGUUUGGACUGGGCAGAGCUCAACACAGCGUGGCAAAGUGGCUGUGGCUAGACUGCCUCUCUGGAUUCCUCGUCACUCAGCAGGGCAUCUCUGAGAGAAAUGCC

Variants of: B1
Assay: self-cleavage, relative activity (ratio to wild type); higher = more cleavage; in vitro, sequencing; the parent is a self-cleaving ribozyme

Row | Variant | self-cleavage
1 | G25A G93A A124G | 0.04
2 | A94G A117G G122U | 0.16
3 | U39C A69G A79G G105A A138G A141U | 0.73
4 | U85G U108G G122C G126A U132C | 0.14
5 | U13C A43G U81C U112C | 1.84
6 | C3U G11A G55A A117G | 0.62
7 | U5C C66U U73C C133A | 0.11
8 | U26C U96A U115A | 0.03
9 | G75A A77G C113U A136G | 0.28
10 | U13C A59G A124G | 0
11 | U20C U26C A77G A142G | 1.45
12 | G70A G122A U134C A142G | 0.36
13 | U15C C95U U130A U143A | 0.39
14 | U13C A77G U143A | 2.12
15 | U12A A24G G135A | 0.69
16 | G21A U47C A121G | 1.99
17 | U62G A69G U108C A141G | 0
18 | U1A A6C A64G A67U | 0.47
19 | G27A U52A U100C | 1.85
20 | U14C U29C U73A | 1.04
21 | U13A A79G U100C | 1.92
22 | A22U A31C A69G | 0.21
23 | U13C A78U A136G | 0.84
24 | A79G U102C A140G | 1.72

Row | Variant | self-cleavage
25 | U14C G25U U108C C116U U134A | 1.2
26 | A43U U46C G83A A124U | 1.13
27 | A22G U130C A141U | 2.07
28 | U5C G21A U26C U109A U132C | 2.45
29 | C61U U119A A142G | 0.01
30 | U29C C101U A124U | 0.93
31 | C95A U119A U134A | 0.05
32 | U13C A138G A140G | 1.31
33 | A6G G70U U108C A121G | 0.1
34 | U9C U52C A94U G135U | 0.9
35 | A2U U26C A42G G54A U96C | 0.08
36 | C61U A64U G127U | 0.03
37 | U12G A22G A43G U104A | 0.82
38 | A6G U47A G97A | 0.08
39 | U9A C17U A64U U134C | 0.66
40 | G21A A77C A78G | 1.7
41 | U29C U91C U102A | 1.84
42 | A6U U62C A78G U132C | 0
43 | A6G U81A U87G | 0.82
44 | U29C G40U A92U | 0.36
45 | U13C U20C U46C A124G | 1.48
46 | U39A U112A A140G | 1.59
47 | U13C U39C U46C | 0.27
48 | U9A U23G U109C U143C | 0

Row | Variant | self-cleavage
49 | U26C A43G A57G | 0.27
50 | G21A A69G A129G | 0.38
51 | U13C A31U A121U | 0.73
52 | C19U A65G A69U A107U | 0.08
53 | A22U A30U G106U | 0.41
54 | A24G U29C U87A A138G | 0.12
55 | A78G U112A A121G | 0
56 | G7A U115A A129G | 1.33
57 | U13A A50U U73C | 0.73
58 | G74A U87C A142G | 0.1
59 | U20A G33U A42U | 0.92
60 | A50G A124G A142U | 0.41
61 | A22G U29A U62C U109A | 0
62 | U13C U29A U47C U96G | 0.71
63 | C19U A79G A92C | 1.15
64 | A22G A69G U115C A129G | 0
65 | U12A A31G C38A | 1.48
66 | A6G G8C U46C A129G | 0.54
67 | A30U G34A A59U A64U U115C A136G | 0.47
68 | A50G U96A G114A | 0.05
69 | U20A U104C A138G | 2.89
70 | U15C U47A A78G | 1.16
71 | U12C A30C G35U G54U | 1.46
72 | A24G C61A U85C | 0.09

Row | Variant | self-cleavage
73 | U13A U87C U132C A138U | 0
74 | U13A U15G U45C C66U U91C U112C | 0
75 | C3A U23C A117U | 1.2
76 | A43G U47C C116U A121G A142G | 1.42
77 | A59G A79C U87A U130A | 0
78 | G35A G58U A79G | 0.01
79 | U12C A64G U112C C123U | 0.33
80 | U9A U20G U100C | 1.2
81 | U12C U14C A79G | 0.32
82 | U20C A129G U134A | 0.93
83 | U15A A30G A140G A142G U143C | 2.7
84 | U13C U87A A136U | 0.3
85 | U1C G40A U102C | 0.84
86 | U20C C99U U119C | 0.45
87 | A78G U100C U112C | 1.25
88 | U14C A59G A67G U132C | 0
89 | A6U U15A U132C | 0.62
90 | U46G A124G U130A | 2.02
91 | U46A A57G U104C | 2.63
92 | U23C G55A C84U U108C U115C U119A | 0.12
93 | A79U U112C A140G | 1.21
94 | A22G U46C A129G C145A | 0.92
95 | G34A U45G U130C | 0.92
96 | A57G A67C A140U | 0.13

Row | Variant | self-cleavage
97 | U96C C111U U143C | 0.15
98 | A65U U100A C118U U143C | 0.06
99 | U20C U52A A140G | 1.5
100 | U29G U47A A57G C103A U108C | 1.7
101 | A92G A117U U130C | 0.14
102 | U14C U39C U47C A136G | 0.81
103 | A2G U45C U46C | 0
104 | G4A A129G A138C | 0
105 | U134C A140G U143C | 0.65
106 | A24U U115C C146U | 1.63
107 | U20C U26C U143C | 1.8
108 | A57G U104A U132C | 0.34
109 | U14G G32A U102C | 1.28
110 | U5C U62C A107G A141G | 0
111 | A65U U102C U109A | 0.09
112 | U109C U115C A129G | 0
113 | U20A A57G C95A | 0.12
114 | A6C A50G U109C | 0.3
115 | A65G U85C U91A U100C | 0
116 | U13C A50U A69G | 0.69
117 | U14C U46A U102C | 1.43
118 | U15C C19U U62C U91C A141U | 0.06
119 | U9C A42G U52A | 1.87
120 | A2G U14C A65G G88A | 0.26

Row | Variant | self-cleavage
121 | G49A C66G U130C A140G | 0.05
122 | A64G C76U U102C U108C | 0.46
123 | U39C A57U U73A | 0.05
124 | A2U U9A U13C A69G A94C U108A | 0
125 | A22G U96A U112C | 0.11
126 | U100C U134A A140U | 1.7
127 | A43G U45G C71A | 0.19
128 | C51U A57G U96A U115C | 0
129 | G80A U91A A92G | 0.08
130 | U14C C99U U112C | 0.55
131 | G82U U109A A140G | 0.43
132 | G32U U45A A59G U134C | 0.03
133 | G53A U73C U115A A141G | 1.92
134 | A22U A64C G86A | 0.06
135 | U20C C37G U45C | 1.39
136 | A117G A121U A138G A142G | 1.3
137 | A59G U104C U112C | 0.29
138 | A2C U14C A50G U119A | 1.32
139 | U13C U81C A136G | 1.72
140 | C103U A117G A129G | 1.68
141 | U9A G34U U46A | 1.27
142 | U9C U62C U87C | 0
143 | A57U A136G U143A | 0.21
144 | U26C A78G U109C U130C | 1.15

Row | Variant | self-cleavage
145 | U47C U73A A78G | 0.27
146 | U29C U46C A107G | 1.36
147 | A59G C99U U108C C110U | 0.01
148 | U14G U62A U87A A141G | 0.12
149 | A30G U45C U119C A142G | 0.81
150 | G74A U96C A121G A124G | 0.08
151 | U13A U20C A50U A92G | 0.05
152 | U45C C120A A138U | 0.97
153 | U85C G89A U109C | 0.03
154 | A43U G58A A121U U130C A138G | 0.07
155 | U46C A59G U62C U109C | 0.46
156 | C71A C84A U96C | 0.03
157 | A64U G72U A94U A136U | 0.21
158 | U85A U102A A141G | 0.14
159 | A22G U39A A57C | 0.11
160 | A22G U39C A65G | 0
161 | U13C U39A U143C | 0.92
162 | U13C A69U U100C | 0.2
163 | U13C U39C U132A | 1.38
164 | A77G U85C A107U A129U A136U | 0.09
165 | U15A C37G U100C | 0.92
166 | U46A U108C U143C | 1.73
167 | A6G U14C C16A | 0.66
